# Test results reported in PubChem BioAssay AID504332 (National Center for Advancing Translational Sciences (NCATS), 2011).
# In all, about 350,000 compounds went through this assay and about 31,000 (8.9%) were called active. Inconclusive results, whose numbers are uncertain, are shown with a selection of clear calls. The call rests on the fitted dose curve; in most records, active means well fitted inhibition curve with a large enough effect; inconclusive means small, poorly fitted or top-dose-only effect; inactive means no such curve, though single readings can be large or run the other way. Where the call is inconclusive, the potency comes from a doubtful curve fit.
# Biological target: Histone-lysine N-methyltransferase EHMT2 (Homo sapiens) (UniProt Q96KQ7)
# UniProt Q96KQ7, sequence (Q96KQ7 whole entry, looked up): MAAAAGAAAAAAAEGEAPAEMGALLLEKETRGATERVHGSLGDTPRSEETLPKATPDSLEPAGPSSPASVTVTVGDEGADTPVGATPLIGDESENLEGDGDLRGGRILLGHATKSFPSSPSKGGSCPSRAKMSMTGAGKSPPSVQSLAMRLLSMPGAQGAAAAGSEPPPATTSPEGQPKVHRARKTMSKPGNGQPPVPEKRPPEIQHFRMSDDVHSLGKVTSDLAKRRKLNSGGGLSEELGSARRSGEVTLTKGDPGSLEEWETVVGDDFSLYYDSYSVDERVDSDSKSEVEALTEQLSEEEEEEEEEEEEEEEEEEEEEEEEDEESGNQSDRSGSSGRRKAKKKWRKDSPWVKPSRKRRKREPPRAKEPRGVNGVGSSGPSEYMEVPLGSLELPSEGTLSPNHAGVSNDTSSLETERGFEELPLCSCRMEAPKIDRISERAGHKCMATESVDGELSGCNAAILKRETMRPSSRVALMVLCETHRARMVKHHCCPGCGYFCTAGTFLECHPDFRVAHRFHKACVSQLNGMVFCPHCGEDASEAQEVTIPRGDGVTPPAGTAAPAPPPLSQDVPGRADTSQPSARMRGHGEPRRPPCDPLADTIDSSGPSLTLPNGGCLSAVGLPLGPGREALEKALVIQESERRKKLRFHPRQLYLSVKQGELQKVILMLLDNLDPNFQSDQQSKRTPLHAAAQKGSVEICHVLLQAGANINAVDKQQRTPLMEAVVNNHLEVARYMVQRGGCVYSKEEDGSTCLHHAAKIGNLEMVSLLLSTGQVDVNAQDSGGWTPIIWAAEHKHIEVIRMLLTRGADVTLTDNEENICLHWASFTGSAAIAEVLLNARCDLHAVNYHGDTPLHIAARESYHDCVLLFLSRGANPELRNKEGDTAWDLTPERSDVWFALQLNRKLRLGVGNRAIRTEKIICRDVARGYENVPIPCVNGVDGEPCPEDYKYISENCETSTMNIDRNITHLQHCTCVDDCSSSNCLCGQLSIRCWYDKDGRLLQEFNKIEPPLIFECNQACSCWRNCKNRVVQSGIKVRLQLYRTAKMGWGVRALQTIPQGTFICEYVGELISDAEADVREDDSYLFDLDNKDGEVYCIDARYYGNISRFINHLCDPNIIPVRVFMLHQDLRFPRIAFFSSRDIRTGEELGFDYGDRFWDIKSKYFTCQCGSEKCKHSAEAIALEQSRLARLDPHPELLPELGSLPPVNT
# Assay: qHTS Assay for Inhibitors of Histone Lysine Methyltransferase G9a; further: nearly all actives have a fitted effect of over 75% in size
# Settings: G9a H3K9 monomethylation, AlphaScreen, 2 h; activity, negative = inhibition: at 59 µM (top of the series) unless noted
# Summary of the method: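 Compounds were preincubated with 20 nM G9a for 15 min, after which biotinylated H3K9 peptide (500 nM) and SAM (20 uM) started a 2 h room-temperature reaction. Monomethylated product was quantified by antibody-based AlphaScreen chemiluminescence.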
# On the % scale 0 is the no-effect control and ±100 the full control effect; potency means the concentration at half of the fitted maximal effect; tags describe the fitted curve by direction and shape.
SMILES,"activity, negative = inhibition",Potency
Cc1cccc(NC(=O)CSc2nnc([C@H](C)NC(=O)OC(C)(C)C)o2)c1C,inactive: 8.76% [at 102 µM],
O=[N+]([O-])c1cc(S(=O)(=O)N2CCCC2)ccc1N/N=C1/CCCc2ccccc21,,active: 4.47 µM
COc1ccccc1NC(=O)c1cc(C2CC2)nc2c1c(C)nn2-c1ccc(C)cc1,inactive: 3.8%,
CCCC[n+]1c2ccccc2cc2ccccc21,,active: 1.26 µM
Cn1cccc1-c1nc2ccc([N+](=O)[O-])cc2[nH]1,,active: 8.91 µM
O=c1c(S(=O)(=O)c2ccc(Cl)cc2)cn(Cc2ccc(F)cc2)c2ccc(F)cc12,inactive: -9.45%,
CCOC(=O)N1CCN(CC(=O)Nc2ccc(F)cc2F)CC1,inactive: 2.03% [at 102 µM],
COCc1[nH]nc2c1C(c1ccccc1F)C(C#N)=C(N)O2 (stereo not given),inactive: -10.2% [at 102 µM],
CC(C)(C)c1ccc(NC(=O)CSc2nnc(-c3n[nH]c4ccccc34)o2)cc1,,"inconclusive: 79.4 µM [inhibitor, single point]"
COC(=O)c1sc(N2C(=O)C(O)=C(C(=O)c3ccc(C)o3)C2c2ccc(F)cc2)nc1C (stereo not given),,active: 12.6 µM
CN1CCN(Cc2c(C(=O)N/N=C/c3cccc(Br)c3)nnn2-c2nonc2N)CC1,,"inconclusive: 89.1 µM [inhibitor, single point]"
Cc1ccc(C(=O)NNC2=NC(C)(C)Cc3ccccc32)cc1,,"inconclusive: 44.7 µM [inhibitor, partial curve]"
COc1ccc(OC)c(NC(=O)CCc2nc(-c3ccc(C)cc3)no2)c1,inactive: -28.9%,
C=CCn1c(NC(=O)c2ccc(Br)o2)c(S(=O)(=O)c2ccccc2)c2nc3ccccc3nc21,,"inconclusive: 56.2 µM [inhibitor, partial curve, poor fit]"
CN(CC(=O)Nc1cccc(F)c1)C(=O)c1cc(S(=O)(=O)N2CCCCC2)ccc1N1CCOCC1,,"inconclusive: 89.1 µM [inhibitor, single point]"
COc1cc(CNC(C)(C)C)cc(Br)c1OCc1cccs1,inactive: -1.28%,
COc1ccc(C2C(CC(=O)O)=C(O)C(=O)N2c2ccccc2)cc1 (stereo not given),inconclusive: -85.3% [inhibitor],
N=c1c(C(=O)NC2CCCCC2)cc2c(=O)n3ccccc3nc2n1CCc1ccccc1,inactive: 16.9% [at 102 µM],
C=CCn1c(C)csc1=Nc1ccc(C(C)=O)cc1,,"inconclusive: 35.5 µM [inhibitor, partial curve, poor fit]"
CCN(CC)c1ccc(CNc2nc3ccccc3n2CCN2CCOCC2)cc1,,"inconclusive: 35.5 µM [inhibitor, partial curve, poor fit]"
CCCCn1c(SCC(=O)c2c(N)n(C3CC3)c(=O)[nH]c2=O)nc2cc(S(N)(=O)=O)ccc21,,"inconclusive: 50.1 µM [inhibitor, partial curve]"
Cc1cccc(N2C(=O)CC(Sc3ccccc3C(=O)O)C2=O)c1 (stereo not given),,"inconclusive: 2.24 µM [inhibitor, full curve, poor fit]"
O=[N+]([O-])c1cc(C(F)(F)F)ccc1NCCc1c[nH]c2ccc(O)cc12,inconclusive: -111% [inhibitor],
CCn1c(CSc2nc3ccccc3[nH]2)nc2cc(C(=O)O)ccc21,inactive: -44.9% [at 12.7 µM],
COc1ccc(-n2ncc(C(C)NS(=O)(=O)c3cc(F)ccc3C)c2C)cc1 (stereo not given),,"inconclusive: 39.8 µM [inhibitor, partial curve, poor fit]"

SMILES,"activity, negative = inhibition",Potency
CN(CC(=O)Nc1c(Cl)cccc1Cl)C(=O)CCNS(=O)(=O)c1ccccc1C(F)(F)F,inactive: 0.18% [at 102 µM],
CN(C)Cc1ccccc1-c1cc(NCc2cccs2)ncn1,inactive: 16% [at 0.501 µM],
O=C(N/N=C/c1ccc(C(=O)O)cc1)C1=NNC(c2ccccc2)(c2ccccc2)C1,inactive: -0.0595% [at 102 µM],
O=C(CCS(=O)(=O)c1ccc(Br)cc1)NC1CCCC1,,active: 44.7 µM
Cc1ccc(N(CC(C)C)S(=O)(=O)c2nnc(NC(=O)c3cccs3)s2)cc1,inactive: 14.8%,
COCC(=O)n1nc(-c2ccc(C)cc2)nc1NCc1ccc(F)cc1,inactive: 0.52% [at 102 µM],
c1ccc2c(C3=NNC(=NC4CCCCC4)SC3)c[nH]c2c1,,"inconclusive: 15.8 µM [inhibitor, single point]"
O=c1[nH]c2c(s1)C=Nc1ccccc1N2,inactive: -15.1% [at 102 µM],
CN(C)c1nc(N)nc(CSc2nc3c(c(=O)n(C)c(=O)n3C)n2Cc2ccccc2F)n1,,"inconclusive: 89.1 µM [inhibitor, partial curve, poor fit]"
CNC(=O)CSc1nnc(NC(=O)Nc2ccccc2)s1,,active: 15.8 µM
CCOc1ccccc1N(CC(=O)Nc1ccc(OC)c(Cl)c1)S(=O)(=O)c1ccccc1,inactive: -14.6%,
Oc1ccc(CN2CCC(Cc3ccccc3)CC2)c2cccnc12,,active: 35.5 µM
Cc1cccc(Oc2coc3cc(OCC(=O)NC4CCCCC4)ccc3c2=O)c1,inactive: -3.32%,
CCOC(=O)c1oc2c(c1C)/C(=N/O)CCC2,inactive: 12.1% [at 102 µM],
Cc1ccc(C(=O)NNC(=O)COc2ccc(Cl)cc2C)o1,inactive: 6.18% [at 12.7 µM],
COc1cccc(N2CCN(C(c3ccccn3)c3nnnn3C(C)(C)C)CC2)c1 (stereo not given),,"inconclusive: 39.8 µM [inhibitor, single point]"
Cc1ccc(C)c(-c2nc3ccc(N)cc3[nH]2)c1,,"inconclusive: 1.12 µM [inhibitor, partial curve, poor fit]"
COc1ccc2[nH]c(=O)c(-c3noc(-c4ccccc4)n3)cc2c1,inconclusive: -52.2% [inhibitor],
CN(C)c1cccc(C(=O)NC2CCCc3ccccc32)c1 (stereo not given),,"inconclusive: 39.8 µM [inhibitor, single point]"
CCOCN(C(=O)Cn1cnc2cc(C)c(C)cc21)c1c(C)cccc1CC,inactive: 0.994%,
COc1ccc(NC(=O)CN(C)C(=O)c2cc(-c3ccc(Cl)cc3)nc3ccccc23)cc1,,"inconclusive: 3.16 µM [inhibitor, partial curve, poor fit]"
CC(=O)c1ccc(NC(=O)CSc2cn[nH]n2)cc1,,"inconclusive: 56.2 µM [inhibitor, single point]"
O=C(CN1CCN(c2ccc(Cl)cc2)CC1)c1ccccc1,,active: 8.91 µM
CN1CCN(S(=O)(=O)c2ccc(N3CCN(c4ccccc4O)CC3)c([N+](=O)[O-])c2)CC1,,active: 39.8 µM
CCOc1ccc(/C=C/c2nc(C#N)c(N3CCN(c4ccccc4)CC3)o2)cc1,,"inconclusive: 2 µM [inhibitor, partial curve, poor fit]"

SMILES,"activity, negative = inhibition",Potency
Cc1ccc(C(=O)CC(=O)c2cccc(F)c2)c(O)c1,,"inconclusive: 25.1 µM [inhibitor, single point]"
COc1cc(N/N=C/c2ccc(N(C)C)cc2)ncn1,inactive: -4.94% [at 102 µM],
O=C(CCCN1C(=O)/C(=C\c2cccs2)SC1=S)Nc1ccccn1,,"inconclusive: 31.6 µM [inhibitor, single point]"
COC(=O)CSc1nnc(CNc2ccc(Cl)cc2)n1-c1ccccc1,,"inconclusive: 79.4 µM [inhibitor, single point]"
O=C(O)c1ccccc1-c1nnc2c(Cl)cc(C(F)(F)F)cn12,,"inconclusive: 1.12 µM [inhibitor, single point]"
COc1ccc(Br)cc1CNC(=O)C1COc2ccccc2C1 (stereo not given),inactive: 13.1%,
CC(=C/c1ccc(C(C)C)cc1)/C=N/NC(=O)Cn1nnnc1N,inactive: 7.12% [at 102 µM],
Cc1ccc2nc(N3CCN(C)CC3)c(C=O)c(=O)n2c1,inactive: -15.2% [at 102 µM],
COc1ccccc1C(=O)COC(=O)c1cnc(C)cn1,inactive: 4.52% [at 12.7 µM],
C/C=C(\C)C(=O)NCCN1C2=NC[C@H](C(C)C)N2C[C@H]1Cc1ccc(O)cc1,inactive: 7.67%,
Cn1ccnc1SCC(=O)c1ccc(OC(F)F)cc1,,"inconclusive: 89.1 µM [inhibitor, single point]"
CCN(CC)c1ccc(NC(=O)C2CCCC2)cc1,,active: 44.7 µM
Cn1nnnc1SCC(=O)NC1CCCCC1,,"inconclusive: 39.8 µM [inhibitor, partial curve, poor fit]"
O=c1c(-c2ccc(O)cc2)coc2cc(O)ccc12,,"inconclusive: 50.1 µM [inhibitor, partial curve]"
CCc1ccc(-c2nc(CN3CCCC(C(=O)O)C3)c(C)o2)cc1 (stereo not given),,"inconclusive: 89.1 µM [inhibitor, single point]"
COc1ccc(N2C3=C(CC4=C2CCCC4=O)C(=O)CCC3)cc1,,"inconclusive: 31.6 µM [inhibitor, single point]"
COC(=O)CCCC(=O)N1CCCC(C(=O)c2ccc(OC)cc2C)C1 (stereo not given),,"inconclusive: 0.447 µM [inhibitor, partial curve, poor fit]"
CC(C)(C)c1ccc(-c2noc(CCC(=O)Nc3cccc(Cl)c3)n2)cc1,,"inconclusive: 17.8 µM [inhibitor, partial curve]"
COc1cc(CNC(C)C)ccc1OCC(=O)Nc1cccc2ccccc12,inactive: 9.78% [at 102 µM],
Cc1cc(/C=N/Nc2ccc([N+](=O)[O-])cn2)c(C)n1-c1ccc(C(=O)O)cc1,,active: 50.1 µM
Cc1ccc(S(=O)(=O)Cc2nc(-c3ccc(C(=O)NCc4ccccc4F)cc3)oc2C)cc1,inactive: -47.9%,
CCOC(=O)N1CCN(C(=O)CN(c2cc(C)ccc2OC)S(=O)(=O)c2ccc(C)cc2)CC1,,"inconclusive: 2.82 µM [inhibitor, full curve]"
COC(=O)C1=C(C)Nc2ncnn2C1c1ccc(C)o1 (stereo not given),,"inconclusive: 50.1 µM [inhibitor, partial curve, poor fit]"
CN1CCCN(Cc2ccccc2C(F)(F)F)CC1,inconclusive: -139% [inhibitor],
CC(C)N(CC(N)=O)c1ccc(S(=O)(=O)N2CCCC2)cn1,inactive: -11%,
